This is an account of results in PubChem BioAssay AID1346428 (National Center for Advancing Translational Sciences (NCATS), 2018).

About 1,200 (2.5%) of roughly 48,000 compounds were called active. Another 2% or so got no clear call; they are omitted.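 The calls were made as follows: active = activation of at least 60% and not above a set upper limit (about 1 call in 100 departs from these limits); inconclusive = activation of 40% to 60%, or above that upper limit; inactive = activation under 40%.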 Some of the results follow.

UniProt O75388, sequence (O75388 whole entry, looked up): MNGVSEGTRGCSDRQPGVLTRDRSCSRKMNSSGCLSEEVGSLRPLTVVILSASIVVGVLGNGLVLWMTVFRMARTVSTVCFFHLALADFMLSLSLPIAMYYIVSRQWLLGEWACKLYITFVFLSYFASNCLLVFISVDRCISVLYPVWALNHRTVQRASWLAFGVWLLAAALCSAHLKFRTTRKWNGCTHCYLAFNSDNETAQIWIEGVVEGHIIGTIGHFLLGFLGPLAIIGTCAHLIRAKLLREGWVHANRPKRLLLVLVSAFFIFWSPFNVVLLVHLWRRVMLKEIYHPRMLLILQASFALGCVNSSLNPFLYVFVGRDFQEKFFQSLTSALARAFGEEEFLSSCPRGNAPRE

The target in this assay is Probable G-protein coupled receptor 32 (Homo sapiens) (UniProt O75388). Put plainly: qHTS for Agonists of Human Resolvin D1 Receptor DRV1. To be noted: CHO-K1 GPR32 beta-arrestin PathHunter luminescence, 90 min; at 76.9 µM; active compounds read high; zero percent set by DMSO-only wells. The gist of the method:
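Using DMSO wells as EC0, agonist-induced signal was taken as chemiluminescence from beta-Gal reconstituted upon beta-arrestin recruitment to GPR32 in CHO-K1 cells after 90 min compound treatment.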
For the compound `COc1cccc(C(=O)Nc2ccccc2-c2nnc(-c3ccc(C(C)(C)C)cc3)o2)c1`, the activation was inactive: -2.57%.
Turning to `COc1ccc2cc3cc(C(=O)Nc4ccccc4C)oc3nc2c1`, the activation was active: 98.5%.
Regarding `COc1ccc(NC(=O)CSc2nc(C)cc(C)c2C(=O)Nc2cccc(C)c2)cc1`, the activation is inactive: -15.1%.
For `CCCOC(=O)c1ccc(Nc2nc3ccccc3nc2-n2nc(C)cc2C)cc1`, the activation was inactive: -12.4%.
Consider `C[C@@H](NC(=O)CN(c1ccccc1)S(=O)(=O)N(C)C)c1ccccc1`, for which the activation is inactive: 7.98%.
For the compound `CCOc1ccc(-c2cc(CCCC(=O)NCCc3ccc(OCC)c(OCC)c3)no2)cc1`, the activation was inactive: 7.65%.
With `CCN1CCN(C(=O)c2ccc3c(c2)N(Cc2ccccc2F)C(=O)c2ccccc2S3(=O)=O)CC1` the figure was inactive: -28.1%; with `Cc1ccccc1NC(=O)c1ccc(F)c(S(=O)(=O)NC2CCCC2)c1`, inactive: -19.3%.
With `COc1cc(NS(=O)(=O)c2ccc(NC(=O)c3ccc(C(C)=O)cc3)cc2)nc(OC)n1`, the activation is inactive: -13.3%.
With `COc1ccc(NC(=O)c2sc3nc4c(cc3c2N)CCCCCC4)cc1Cl`, the activation was inactive: 26.5%.
As for `CCOC(=O)c1cccc(NC(=O)N2CC(CC)Oc3ccccc32)c1` (configuration not stated), the activation is inactive: -34%.
For the compound `COc1cccc(N(C)C(=S)Oc2ccc3c(c2)CCCC3)n1`, the activation was inactive: 15.3%.
Regarding `Cc1ccc(N2CCN(C(=O)c3c(C)oc4nc(C)nc(N5CCCC5)c34)CC2)c(C)c1`, the activation is inactive: 1.58%.
As for `Cc1cccc(-n2ncc(C(=O)NCc3ccco3)c2C2CCN(C(=O)OC(C)(C)C)CC2)c1`, the activation was inactive: -23.7%.
For `Cc1cccc(CNC(=O)CCCN2C(=O)COc3ccc(C)cc32)c1`, the activation was inactive: -18.5%.
With `CCn1c(=O)c2cc(C(=O)N(C)c3cc(Cl)c(OC)cc3OC)sc2c2ccccc21` the figure was inactive: 1.65%.
Take `Cc1nc2cccnc2n1C1CCN(S(=O)(=O)c2ccc(C(C)C)cc2)CC1`: the activation is inactive: 33.1%.
Take `CCc1nn(CC(=O)NCCN(CC)CC)c(=O)c2cc3occc3n12`: the activation is inactive: 5.73%.
Take `O=C(CSc1ncc2c(n1)-c1ccccc1N(Cc1ccc(F)cc1)S2(=O)=O)NCc1ccccc1`: the activation was inactive: -21.8%.
With `CCOc1ccc(NC(=O)c2noc3c2CSc2ccccc2-3)cc1` the figure was inactive: -8.88%.
Then `O=C(NCc1ccc(Cl)cc1)C1CCN(S(=O)(=O)c2ccc3c(c2)CCCN3C(=O)C2CCC2)CC1`, with inactive: -17.5%; and `CC(C)(C)c1ccc(S(=O)(=O)N2CCN(C(=O)c3cc(-c4ccc(Br)cc4)n[nH]3)CC2)cc1`, with inactive: -6.87%; and `O=C(CSc1nc(O)c(C/C=C/c2ccccc2)c(=O)[nH]1)Nc1cccc(F)c1`, with inactive: -3.42%.
`O=C(Nc1ccc2oc(-c3cc(Br)ccc3Cl)nc2c1)c1ccc2ccccc2c1`: the activation was inactive: 7.13%.
Regarding `COc1cccc(CNC(=O)c2nnc(Cc3ccc(Cl)cc3)o2)c1`, the activation was inactive: 14.1%.
In the case of `COc1cc(-c2noc(-c3ccc(N4CCCCC4)c([N+](=O)[O-])c3)n2)cc(OC)c1OC`, the activation is inactive: 0.997%.
With `CCOCCc1nn2c(=O)cc(COC(=O)c3ccco3)nc2s1`, the activation was inactive: -2.9%.
Consider `COc1ccc(-c2cc(C)no2)cc1S(=O)(=O)N1CC(C)Oc2ccccc21` (configuration not stated), for which the activation was inactive: -28.8%.
Consider `COc1ccccc1N1CCN(c2ncnc3onc(C)c23)CC1`, for which the activation is inactive: 22.4%.
Then `O=C(CSc1ccc(-c2cccs2)nn1)Nc1cccc(F)c1`, with inactive: 26.2%.
In the case of `CCN1CCN(CCCNC(=O)c2ccc3c(c2)sc2nc(-c4ccc(C)cc4)cn23)CC1`, the activation was inactive: 1.21%.
For `CCOC(=O)Cn1c(=O)n(C2CCCCC2)c2nc(-c3cccc(C)c3)nc(C(N)=O)c21`, the activation was inactive: 6.57%.
Turning to `O=C1CC(c2cccc(F)c2)c2c(n3ncnc3[nH]c2=O)N1` (configuration not stated), the activation was inactive: -27.4%.
Turning to `COc1cccc(N2CCN(C(=O)Cn3ncc4c(=O)oc5ccccc5c43)CC2)c1`, the activation was inactive: 15.5%.
On to `CCCn1c(=O)c2sccc2n2c(CCCC(=O)Nc3ccccc3F)nnc12`, for which the activation is inactive: -12.4%.
As to `CN(C(=O)c1oc(=O)c2ccccc2c1-c1ccccc1)c1cccc(Cl)c1`, the activation was inactive: -41.6%.
Consider `COc1ccc(-n2c(SCC(=O)NCc3ccccc3)nc3n[nH]c(C)c3c2=N)cc1`, for which the activation is inactive: 4.93%.
With `CCCNC(C)C(=O)Nc1c(C)csc1C(=O)OC` (configuration not stated) the figure was inactive: -9.71%.
With `COc1cccc(CN2CCc3nc(N4CCN(C)CC4)ncc3C2)c1` the figure was inactive: -12.5%; with `COc1ccc(-n2nc(C(=O)N3CCN(c4cccc(C(F)(F)F)c4)CC3)c3c4ccccc4n(C)c3c2=O)cc1Cl`, inactive: -8.13%.
Take `CCOc1ccc(CCNC(=O)Cc2ccc(NC(=O)N3CCSc4ncccc43)cc2)cc1`: the activation was inactive: -8.25%.
For `Cc1oc2ncn(C)c(=O)c2c1C(=O)NCc1ccccc1`, the activation was inactive: -9.82%.
With `Cc1cccc(-c2noc(-c3cc(-c4ccc(F)cc4)n[nH]3)n2)c1` the figure was inactive: -0.456%.
Then `COc1cccc(N2CCN(C(=O)Cn3ncc4c5ccccc5n(C)c4c3=O)CC2)c1`, with inactive: -15%; and `COc1cc(OC)cc(C(=O)Nc2nc(-c3nnn(-c4ccc(F)c(Cl)c4)c3C)ns2)c1`, with inactive: 9.29%.
As for `COc1cc(-c2noc(-c3ccc(N4CCOCC4)c([N+](=O)[O-])c3)n2)cc(OC)c1OC`, the activation is inactive: -23.9%.
Take `CCN(CCCNC(=O)CSc1cc(=O)n(C)c2cc(Cl)ccc12)c1cccc(C)c1`: the activation was inactive: 3.23%.
As for `Cc1c2cnn(-c3ccccc3)c(=O)c2c(C)n1CC(=O)N1CCN(c2ccc(F)cc2)CC1`, the activation was inactive: -0.499%.
Consider `Cc1ccc(OCC(=O)N(Cc2ccco2)Cc2ccco2)cc1`, for which the activation is inactive: -11.4%.
Regarding `Cc1ccc(NC(=O)CSc2nc3ccccc3c3nc(CCn4cncc4C)nn23)c(C)c1`, the activation was inactive: -6.91%.
With `COc1cccc(-c2nc(CS(=O)(=O)CC(=O)Nc3cc(F)ccc3F)c(C)o2)c1`, the activation is inactive: -35.5%.
On to `CCc1ccc(C(=O)c2c(N)c(-c3nc(-c4ccc5c(c4)OCO5)cs3)c3ccccn23)cc1`, for which the activation was inactive: -9.86%.
Then `Oc1c(C(c2ccc(Br)cc2)N2CCOCC2)sc2nc(-c3ccco3)nn12` (configuration not stated), with inactive: 20.9%.
In the case of `CCS(=O)(=O)c1nc2ccccc2n1CC(=O)Nc1ccccc1C(=O)OC`, the activation is inactive: 6.33%.
With `COc1ccc(CCNC(=O)CCn2c(=O)c3ccccc3n(Cc3c(C)cc(C)cc3C)c2=O)cc1OC` the figure was inactive: 2.78%.
Then `COc1ccc2nc3sc(C(=O)N4CCN(c5ccccc5)CC4)cc3cc2c1`, with inactive: 1.57%.
In the case of `CN(C)c1ccc(C(CNC(=O)c2ccccc2F)N2CCc3ccccc32)cc1` (configuration not stated), the activation was inactive: -25.9%.
On to `Cc1csc2nc(CCNS(=O)(=O)c3ccccc3)cn12`, for which the activation was inactive: -5.03%.
For the compound `N#Cc1ccccc1S(=O)(=O)N1CCCC(c2nc3c(nnn3Cc3cccc(Cl)c3)c(=O)[nH]2)C1` (configuration not stated), the activation was inactive: -8.27%.
With `CC(C)CCNC(=O)CN1C(=O)c2cccnc2Oc2ccccc21` the figure was inactive: -13.9%; with `CN1CCN(C(=O)c2cnn(-c3cccc(Cl)c3)c2C2CCN(C(=O)OC(C)(C)C)CC2)CC1`, inactive: -12.1%; with `COc1cccc(CNC(=O)c2ccc3c(c2)N(Cc2ccc(C(F)(F)F)cc2)C(=O)c2ccccc2S3)c1OC`, inactive: -14.4%.
On to `Cc1nn(-c2ccccc2)c2c1N(CCCC(=O)NCc1ccc(Cl)cc1)C(=O)CS2`, for which the activation is inactive: 0.748%.
Take `CCCCNc1nc2c(S(=O)(=O)c3ccc(Cl)cc3)nnn2c2ccsc12`: the activation was inactive: -14.5%.
On to `CCOc1ccc(NC(=O)Cc2ccc(NC(=O)N3CCCCc4ccccc43)cc2)cc1`, for which the activation was inactive: -3.92%.
With `CC(C)(C)c1ccc(S(=O)(=O)c2cnc(SCC(=O)Nc3ccc(F)c(Cl)c3)[nH]c2=O)cc1` the figure was inactive: -13.2%; with `COc1ccc(-c2nnc(SCC(=O)NCc3ccccc3)nc2-c2ccc(OC)c(OC)c2)cc1OC`, inactive: -18.7%.
For the compound `Cc1ccc(CN(Cc2ccco2)C(=O)COc2ccc(Cl)cc2Cl)cc1`, the activation is inactive: -6.47%.
With `Cc1c(NC(C)C)c(=O)n(-c2ccccc2)n1C`, the activation was inactive: 6.05%.
As for `CCOC(=O)c1cc(-c2ccc(F)cc2)n(CC(=O)NCc2ccc(OC)cc2)c1C`, the activation is inactive: -14.8%.
Take `COC(=O)c1ccc([C@H]2Nc3ccc(S(=O)(=O)Nc4ccc(C)cc4)cc3[C@H]3C=CC[C@H]32)cc1`: the activation was inactive: -36.6%.
As to `Cc1cn2c(=O)cc(COC(=O)c3cccc(NC(=O)COc4ccc(Cl)cc4)c3)nc2s1`, the activation is inactive: -15.5%.
`COC(=O)c1c(NC(=O)COc2ccccc2Cl)sc2c1CCC(C(C)(C)C)C2` (configuration not stated): the activation is inactive: 8.12%.
For `Cc1ccc(CCNC(=O)c2cc3sccc3n2Cc2ccc(F)cc2)cc1`, the activation was inactive: 0.651%.
Turning to `O=C(Nc1ccc(Br)cc1)c1ccc(Br)c(S(=O)(=O)N2CCCCC2)c1`, the activation was inactive: 24.4%.
On to `N#C/C(=C\c1ccc(Br)cc1)c1nc(-c2cc3cc(Br)ccc3oc2=O)cs1`, for which the activation is inactive: -10.5%.
For `Cc1ccc(C(=O)c2cn(Cc3ccccc3F)c3cc4c(cc3c2=O)OCO4)cc1`, the activation was inactive: 44.5%.
With `COC(=O)c1ccc(Cl)cc1NC(=O)N1CCC(CN2CCCC2)CC1` the figure was inactive: -17.1%; with `CC1(C)O[C@@H]2C[C@H]3[C@@H]4CCC5=CC(=O)C=C[C@]5(C)[C@@H]4[C@@H](O)C[C@]3(C)[C@]2(C(=O)CO)O1`, inactive: 6.37%.
Regarding `COc1cc(/C=C(\C#N)c2nc3ccc(C)cc3[nH]2)ccc1OC(C)C`, the activation was inactive: -1.08%.
Then `CCc1ccccc1N(C)S(=O)(=O)c1ccc2[nH]cc(C(=O)NCCOC)c(=O)c2c1`, with inactive: -6.9%.
Take `CCc1ccc(S(=O)(=O)c2c[nH]c3cc(OC)c(OC)cc3c2=O)cc1`: the activation was inactive: -0.692%.
